# The whole screen tested about 310,000 compounds, of which about 2,200 (0.71%) showed an effect of 50% or more. The effect is printed as a negative number. Some of the results follow.
# Target: human ether-à-go-go-related gene (hERG) potassium channel (human, UniProt Q12809)
# Assay: primary screen, population patch clamp on CHO cells stably expressing hERG
# human ether-à-go-go-related gene (hERG) potassium channel, sequence (Q12809 whole entry, looked up): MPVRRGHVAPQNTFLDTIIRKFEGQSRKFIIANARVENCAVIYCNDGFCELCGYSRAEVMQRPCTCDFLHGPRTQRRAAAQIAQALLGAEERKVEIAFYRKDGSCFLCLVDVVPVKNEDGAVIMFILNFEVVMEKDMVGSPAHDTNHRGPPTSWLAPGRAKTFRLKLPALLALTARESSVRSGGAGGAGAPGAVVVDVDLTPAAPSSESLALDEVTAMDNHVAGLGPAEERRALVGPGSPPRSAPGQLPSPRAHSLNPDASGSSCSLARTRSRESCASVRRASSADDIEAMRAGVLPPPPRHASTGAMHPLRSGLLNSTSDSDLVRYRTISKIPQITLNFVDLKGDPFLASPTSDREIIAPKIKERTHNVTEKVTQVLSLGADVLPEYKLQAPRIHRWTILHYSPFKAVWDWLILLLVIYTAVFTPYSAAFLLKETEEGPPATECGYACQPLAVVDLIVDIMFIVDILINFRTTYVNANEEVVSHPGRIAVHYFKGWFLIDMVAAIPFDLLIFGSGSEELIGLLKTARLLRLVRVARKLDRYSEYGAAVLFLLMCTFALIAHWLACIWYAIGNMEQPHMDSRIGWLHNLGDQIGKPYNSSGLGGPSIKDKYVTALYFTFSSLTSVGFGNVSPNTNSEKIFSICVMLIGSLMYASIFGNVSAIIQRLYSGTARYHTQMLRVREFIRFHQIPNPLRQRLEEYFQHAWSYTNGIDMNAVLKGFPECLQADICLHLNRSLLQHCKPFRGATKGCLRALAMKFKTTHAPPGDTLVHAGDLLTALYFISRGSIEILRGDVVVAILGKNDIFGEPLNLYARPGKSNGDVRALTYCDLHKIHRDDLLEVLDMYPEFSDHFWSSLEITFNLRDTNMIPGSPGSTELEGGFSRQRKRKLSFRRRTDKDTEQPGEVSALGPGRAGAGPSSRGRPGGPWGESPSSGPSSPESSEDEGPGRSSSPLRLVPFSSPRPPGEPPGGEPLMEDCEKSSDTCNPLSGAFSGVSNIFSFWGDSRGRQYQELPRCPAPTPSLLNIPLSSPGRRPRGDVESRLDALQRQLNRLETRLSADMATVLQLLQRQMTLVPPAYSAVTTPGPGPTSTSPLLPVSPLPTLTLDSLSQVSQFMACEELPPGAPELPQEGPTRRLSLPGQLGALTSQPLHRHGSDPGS
row,SMILES,"hERG current change (%, negative = inhibition) at 1uM [%]"
1,COc1ccccc1NC(=S)N(Cc1ccccc1)Cc1ccccn1,-0.144
2,Cn1c(CN2CCOCC2)nnc1SCc1ccccc1,-2.07
3,Cc1ccc(/C=N/NC(=O)CN2CCN(S(=O)(=O)c3ccc(Br)cc3)CC2)s1,-3.22
4,Oc1c(CN2CCCCC2)cc(COCc2ccccc2)c2cccnc12,12.6
5,CC(=O)Nc1ccc(Cl)c(-c2nc3ncccc3o2)c1,3.15
6,Cc1ccc(C(=O)NCC(=O)NCCCc2ccccc2)s1,11.7
7,COc1ccc(CC(=O)NCC2CCCN(Cc3ccc(OC(F)(F)F)cc3)C2)cc1 (stereo not drawn),-23.4
8,CC(CN1CCOCC1)OC(=O)C(c1ccccc1)c1ccccc1 (stereo not drawn),4.92
9,CCOCCCNC(=O)C(NC(=O)c1cnccn1)c1ccc(C)cc1 (stereo not drawn),21.5
10,CC(C)(C)C(=O)/C(=C/c1ccc(Cl)cc1)n1cncn1,9.34
11,N#Cc1ccc(NC(=O)CN2CCN(c3ccccn3)CC2)cc1,-42.8
12,COC(=O)c1sccc1-n1cccc1C(=O)C(=O)N1CCCC1,6.84
13,CN(CC(=O)Nc1cccc(F)c1)C(=O)CSc1ccc(Br)cc1,5.81
14,COC(=O)C1=C(C)N(Cc2ccccc2)C(=O)/C1=C\c1ccco1,9.3
15,Cc1ccc(-c2cc(C(F)F)n3ncc(C(=O)N4CCN(c5ccccn5)CC4)c3n2)cc1,14.4
16,CCN(CC(=O)Nc1ccccc1C(F)(F)F)C(=O)Cc1sc(C)nc1-c1ccc(F)cc1,-14.1
17,Cc1cc(Cl)ccc1C(=O)C1CCCN(C(=O)c2cncs2)C1 (stereo not drawn),8.3
18,COc1ccc(NC(=O)c2ccc[n+]([O-])c2)cc1,12
19,COCCN(C(=O)CNC(=O)c1ccco1)C(C(=O)NC1CCCCC1)c1cccnc1 (stereo not drawn),15
20,Cc1ccc2c(c1)C(=O)C(=O)N2CC(=O)Nc1ccc(N2CCOCC2)cc1,4.39

row,SMILES,"hERG current change (%, negative = inhibition) at 1uM [%]"
1,CC(C)(C)n1nc2c(c1NC(=O)c1cc3ccccc3o1)CS(=O)(=O)C2,-5.51
2,Cn1c(CNC(=O)CNC(=O)Cc2ccc(Cl)cc2)cc(=O)n(C)c1=O,15.7
3,CN(C(=O)CSc1nnc(-c2ccc3c(c2)OCO3)o1)C1CCS(=O)(=O)C1 (stereo not drawn),-8.12
4,CC(=O)Nc1ccc(S(=O)(=O)NCCN2CCNC2=O)cc1Cl,7.27
5,CN(C)C(=O)c1cc(C(=O)c2ccc(Cl)cc2Cl)c[nH]1,12.2
6,O=C1CC(c2nc3ccccc3[nH]2)CN1Cc1ccccc1 (stereo not drawn),10.6
7,Nc1c(Cl)cc(-c2[nH]c3cc(C(=O)NCCO)ccc3c(=O)c2O)cc1Cl,12.4
8,O=C(NNC(=O)c1cc2cc3ccccc3nc2s1)c1ccc(F)cc1,6.27
9,Cc1nnc2c(-c3ccccc3)nc3ccccc3n12,9.33
10,CC(=O)Nc1ccc(NC(=O)CSc2ccc3nnc(-c4cccnc4)n3n2)cc1,9.14
11,CCN(CC)S(=O)(=O)c1ccc2c(c1)nc(CCC(=O)Nc1ccc3c(c1)OCO3)n2CC,12.9
12,Cc1ccc(O)c(NC(=O)COc2cc(C)ccc2C)c1,-6.02
13,CC(=O)OC/C=C(\C)CCC=C(C)C,10.2
14,COc1ccc2[nH]c3c(c2c1)CCN=C3C,-8.34
15,CCOC(=O)C1=C(COC(=O)Cc2ccccc2F)NC(=O)NC1C (stereo not drawn),15.5
16,COc1ccc(C(=O)NC2CCN(C(=S)Nc3cccc(C)c3)CC2)cc1,1.55
17,COc1ccc(S(=O)(=O)Nc2ccc3cn[nH]c3c2)cc1C,15.4
18,COc1ccc(CCN2C(=O)CC(Cc3cccc(C)c3)C2=O)cc1OC (stereo not drawn),7.96
19,O=C(Cn1cccc1C(=O)c1ccccc1)NCc1cccnc1,7.63
20,COC(=O)CCS(=O)(=O)c1nc(-c2ccccc2)cc(C(F)(F)F)n1,3.29

row,SMILES,"hERG current change (%, negative = inhibition) at 1uM [%]"
1,O.O=C(O)c1cc(S(=O)(=O)O)ccc1O,15
2,CC(=O)c1ccc(C#CC(C)(C)O)s1,14.3
3,CCOC(=O)C1CCN(c2cc3c(cc2NC(=O)c2ccccc2OCC)n(C)c(=O)n3C)CC1,14.6
4,COc1ccc(CCNC(=O)c2cc(C3CC3)on2)cc1OC,14.5
5,Fc1cccc(Cl)c1CSc1ncn[nH]1,-1.27
6,CN(C)CCNC(=O)COc1ccc(Cl)cc1Cl,6.76
7,COc1ccccc1N1CCN(/N=C/c2ccc(OC)c(OC)c2OC)CC1,8.28
8,CCOc1ccc(NC(=O)c2nnn(CC(=O)Nc3ccccc3OC)c2N)cc1,9.46
9,CCOC(=O)C(=CNc1cc(C)nn1-c1ccccc1)C(=O)OCC,7.67
10,COc1ccc(Cl)cc1NC(=O)COC(=O)CCNC(C)=O,4.56
11,COc1ccc(OC)c(-c2csc(CCn3nc(C)cc3C)n2)c1,10.6
12,CC(=O)NC(c1cccs1)c1cc(F)c2cccnc2c1O (stereo not drawn),15.9
13,COCCNC(=O)CN1CCCCCC1.Cl,14.1
14,CCc1ccc(NC(=S)N2CCC(NC(=O)C3CCCCC3)CC2)cc1,16.4
15,CCN1CCN(CC(=O)c2c[nH]c3ccc(C)cc23)CC1,14.9
16,Cc1ccnc(SCc2cc(=O)c(OC(=O)c3ccccc3)co2)n1,15
17,CCN(CC)CCOC(=O)c1cccc(Cl)c1.Cl,-1.37
18,COc1cc(N)ccc1-c1cc2ccccc2oc1=O,11.6
19,O=C1C2C3C=CC(C4CC34)C2C(=O)N1Cc1ccco1 (stereo not drawn),8.19
20,COc1ccc(NC(=O)c2ccco2)cc1NC(=O)COc1ccccc1[N+](=O)[O-],7.06
